The target of assay [1] is GFP-tagged SARS-CoV-2 nonstructural protein 3 (NSP3) (SARS-CoV-2) (UniProt P0DTD1). In words: pull-down; only the binder purified.
Assay [2] has as its target HCoV-229E NSP3 (HCoV-229E) (UniProt P0C6X1). In words: co-IP.
Assay [3] deals with SARS-CoV-2 NSP8 made in VLP-infected cells (SARS-CoV-2) (UniProt P0DTD1). In words: co-IP.
The target of assay [4] is SARS-CoV-2 NSP3 made in VLP-infected cells (SARS-CoV-2) (UniProt P0DTD1). Kind of assay: co-IP.

The chains behind the UniProt entries cited, without tags or fusion partners. Residues count along the entry.
UniProt P0C6X1, residues 898-2484: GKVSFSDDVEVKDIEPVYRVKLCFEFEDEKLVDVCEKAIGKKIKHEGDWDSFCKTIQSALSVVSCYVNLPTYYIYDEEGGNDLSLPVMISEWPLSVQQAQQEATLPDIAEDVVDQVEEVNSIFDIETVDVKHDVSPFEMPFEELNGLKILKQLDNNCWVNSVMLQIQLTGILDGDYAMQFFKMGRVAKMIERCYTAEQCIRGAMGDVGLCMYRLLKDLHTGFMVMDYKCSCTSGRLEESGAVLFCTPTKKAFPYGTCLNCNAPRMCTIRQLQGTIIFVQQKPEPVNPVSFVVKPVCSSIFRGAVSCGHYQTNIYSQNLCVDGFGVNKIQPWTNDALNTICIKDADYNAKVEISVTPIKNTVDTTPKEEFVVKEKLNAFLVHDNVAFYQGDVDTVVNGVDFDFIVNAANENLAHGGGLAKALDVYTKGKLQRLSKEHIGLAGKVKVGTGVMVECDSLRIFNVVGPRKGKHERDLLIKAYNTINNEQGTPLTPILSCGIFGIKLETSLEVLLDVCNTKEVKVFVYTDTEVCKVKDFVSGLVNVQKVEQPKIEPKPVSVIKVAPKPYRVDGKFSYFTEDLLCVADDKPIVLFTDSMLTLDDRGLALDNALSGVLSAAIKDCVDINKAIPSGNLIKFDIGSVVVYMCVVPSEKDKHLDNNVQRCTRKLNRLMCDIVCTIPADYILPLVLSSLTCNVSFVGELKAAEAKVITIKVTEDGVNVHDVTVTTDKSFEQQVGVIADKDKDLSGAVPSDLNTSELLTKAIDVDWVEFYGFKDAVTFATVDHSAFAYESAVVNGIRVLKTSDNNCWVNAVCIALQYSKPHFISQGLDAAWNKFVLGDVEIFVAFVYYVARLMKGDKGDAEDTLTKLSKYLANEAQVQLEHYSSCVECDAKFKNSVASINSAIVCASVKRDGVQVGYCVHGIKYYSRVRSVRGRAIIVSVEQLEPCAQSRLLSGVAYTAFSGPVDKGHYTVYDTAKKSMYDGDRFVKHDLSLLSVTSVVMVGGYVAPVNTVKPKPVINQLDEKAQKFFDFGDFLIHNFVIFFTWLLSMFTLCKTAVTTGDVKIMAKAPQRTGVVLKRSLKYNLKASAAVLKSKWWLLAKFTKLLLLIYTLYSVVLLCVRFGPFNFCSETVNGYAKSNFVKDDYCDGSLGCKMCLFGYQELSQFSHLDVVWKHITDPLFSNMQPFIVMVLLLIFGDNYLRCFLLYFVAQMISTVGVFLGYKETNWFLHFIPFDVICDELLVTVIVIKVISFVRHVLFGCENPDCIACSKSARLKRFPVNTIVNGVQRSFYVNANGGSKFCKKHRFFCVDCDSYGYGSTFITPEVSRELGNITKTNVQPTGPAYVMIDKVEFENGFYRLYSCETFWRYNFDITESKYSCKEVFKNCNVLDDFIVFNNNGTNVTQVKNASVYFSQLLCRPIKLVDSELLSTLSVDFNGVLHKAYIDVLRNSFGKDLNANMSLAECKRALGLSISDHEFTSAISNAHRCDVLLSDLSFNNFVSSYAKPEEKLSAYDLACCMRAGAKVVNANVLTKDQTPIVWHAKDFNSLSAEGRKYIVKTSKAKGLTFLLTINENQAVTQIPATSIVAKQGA

Results are given in words; binding and its absence hold for the method and conditions named. In cells and extracts the contact can be indirect. Some results given as binding are weak or reduced against the parent protein; the word gives no strength. For some of these results: Where a sequence is shown, tags or fusion partners need not be part of it.

B1: His-tagged DNAJC11 protein, purified (protein, UniProt Q9NVH1 1-559)
chain: MATALSEEELDNEDYYSLLNVRREASSEELKAAYRRLCMLYHPDKHRDPELKSQAERLFNLVHQAYEVLSDPQTRAIYDIYGKRGLEMEGWEVVERRRTPAEIREEFERLQREREERRLQQRTNPKGTISVGVDATDLFDRYDEEYEDVSGSSFPQIEINKMHISQSIEAPLTATDTAILSGSLSTQNGNGGGSINFALRRVTSAKGWGELEFGAGDLQGPLFGLKLFRNLTPRCFVTTNCALQFSSRGIRPGLTTVLARNLDKNTVGYLQWRWGIQSAMNTSIVRDTKTSHFTVALQLGIPHSFALISYQHKFQDDDQTRVKGSLKAGFFGTVVEYGAERKISRHSVLGAAVSVGVPQGVSLKVKLNRASQTYFFPIHLTDQLLPSAMFYATVGPLVVYFAMHRLIIKPYLRAQKEKELEKQRESAATDVLQKKQEAESAVRLMQESVRRIIEAEESRMGLIIVNAWYGKFVNDKSRKSEKVKVIDVTVPLQCLVKDSKLILTEASKAGLPGFYDPCVGEEKNLKVLYQFRGVLHQVMVLDSEALRIPKQSHRIDTDG
Consider B1, for which, in assay [1], the binding result was “binds”.

B2: Myc-tagged DNAJC11 (DnaJ homolog subfamily C member 11) (protein, UniProt Q9NVH1 1-559)
chain: MATALSEEELDNEDYYSLLNVRREASSEELKAAYRRLCMLYHPDKHRDPELKSQAERLFNLVHQAYEVLSDPQTRAIYDIYGKRGLEMEGWEVVERRRTPAEIREEFERLQREREERRLQQRTNPKGTISVGVDATDLFDRYDEEYEDVSGSSFPQIEINKMHISQSIEAPLTATDTAILSGSLSTQNGNGGGSINFALRRVTSAKGWGELEFGAGDLQGPLFGLKLFRNLTPRCFVTTNCALQFSSRGIRPGLTTVLARNLDKNTVGYLQWRWGIQSAMNTSIVRDTKTSHFTVALQLGIPHSFALISYQHKFQDDDQTRVKGSLKAGFFGTVVEYGAERKISRHSVLGAAVSVGVPQGVSLKVKLNRASQTYFFPIHLTDQLLPSAMFYATVGPLVVYFAMHRLIIKPYLRAQKEKELEKQRESAATDVLQKKQEAESAVRLMQESVRRIIEAEESRMGLIIVNAWYGKFVNDKSRKSEKVKVIDVTVPLQCLVKDSKLILTEASKAGLPGFYDPCVGEEKNLKVLYQFRGVLHQVMVLDSEALRIPKQSHRIDTDG
Consider B2, for which the binding result in assay [2] is recorded as “no binding”.

B3: endogenous DNAJC11 (Calu-3-N cells) (protein, UniProt Q9NVH1 1-559)
chain: MATALSEEELDNEDYYSLLNVRREASSEELKAAYRRLCMLYHPDKHRDPELKSQAERLFNLVHQAYEVLSDPQTRAIYDIYGKRGLEMEGWEVVERRRTPAEIREEFERLQREREERRLQQRTNPKGTISVGVDATDLFDRYDEEYEDVSGSSFPQIEINKMHISQSIEAPLTATDTAILSGSLSTQNGNGGGSINFALRRVTSAKGWGELEFGAGDLQGPLFGLKLFRNLTPRCFVTTNCALQFSSRGIRPGLTTVLARNLDKNTVGYLQWRWGIQSAMNTSIVRDTKTSHFTVALQLGIPHSFALISYQHKFQDDDQTRVKGSLKAGFFGTVVEYGAERKISRHSVLGAAVSVGVPQGVSLKVKLNRASQTYFFPIHLTDQLLPSAMFYATVGPLVVYFAMHRLIIKPYLRAQKEKELEKQRESAATDVLQKKQEAESAVRLMQESVRRIIEAEESRMGLIIVNAWYGKFVNDKSRKSEKVKVIDVTVPLQCLVKDSKLILTEASKAGLPGFYDPCVGEEKNLKVLYQFRGVLHQVMVLDSEALRIPKQSHRIDTDG
As to B3, the binding result in assay [3] is listed as “no binding”; in assay [4], “binds”.

The values above are taken from article PMC12390733.
